# Results as given in ChEMBL document CHEMBL4888484, “Replenishing the malaria drug discovery pipeline: Screening and hit evaluation of the MMV Hit Generation Library 1 (HGL1) against asexual blood stage Plasmodium falciparum ,using a nano luciferase reporter read-out” (2022).
# Hit rate of the full screen: of about 150,000 compounds, about 540 (0.36%) showed an effect of 50% or more. Some of the results follow.
# System: Plasmodium falciparum
# Experiment: Primary screen in NF54 nanoGlo assay, in single point, at 2uM, 72h; a lower Z score goes with more inhibition
# Type: functional, Erythrocyte
# Conditions: timepoint 72 hour
SMILES,% Inhibition,Z score
CC(C)OCCCC(=O)N1CC[C@H](CO)C1,1%,-0.11
COc1ccc(-c2nn3c(NCCN4CCOCC4)cc(C)nc3c2C)cc1,0%,0.06
CCc1cc(C(=O)NCc2ccc(N3CCC[C@H](C)C3)cc2)cc(=O)[nH]1,5%,-0.73
COC(=O)c1cc(Cl)cc(NC(=O)N2CC[C@]3(CCOC3)C2)c1,-43%,5.06
O=C(C1CC12CCOc1ccccc12)N1CCC(c2nnc[nH]2)C1 (stereo unspecified),2%,-0.16
Cc1n[nH]c(CN2CCC3(CCN(C4CCCC4)CC3)[C@@H](CO)C2)c1Cl,-4%,0.72
O=C(c1ccc2nsnc2c1)N1CCC(c2ccsc2)CC1,-9%,1.89
Cc1c(S(=O)(=O)N2CCCCC2)cc(C(=O)n2ccnc2)n1C,-3%,0.36
NC(=O)c1ccc(COC(=O)C2CC3CCC2C3)cc1 (stereo unspecified),-12%,2.16
Cc1cc(N2CCN(c3ncc(C#N)cc3Cl)CC2)nc(C(C)C)n1,-20%,2.75
O=C1CC(C[C@H]2CCCO2)=NN1CCc1ccccn1,-33%,3.88
Cn1cc(C(=O)N[C@H]2C[C@H](CO)C2)c(-c2ccncc2)n1,-6%,0.98
COCC1(C(=O)N[C@@H](C)c2ccco2)CCC1,4%,-0.57
COc1cccc(CNC(=O)CN2CCC(C(=O)c3ccc(O)cc3)CC2)c1,-12%,1.3
O=C(Cn1ncc2c([nH]c3ccccc32)c1=O)NC1CCN(Cc2ccccc2)CC1,2%,-0.28
CC(=O)Nc1ccc(S(=O)(=O)NCCn2c(-c3ccncc3)nc3ccccc32)cc1,-3%,0.51
N#Cc1nccnc1O[C@H]1CCN(C(=O)Cn2cnc3ccccc32)C1,-4%,0.45
Cn1nc2c(c1NS(C)(=O)=O)CCC2,-6%,1.23
CC(C)c1csc(CNC(=O)Nc2nc(C3CCC3)cs2)n1,7%,-1.26
Cc1ncn(C[C@H](O)C(F)(F)F)c(=O)c1C,-6%,0.87
CC(=O)/C(=N/Nc1cccc(C)c1)N1CCOCC1,-46%,5.37
Cc1cnc(N2CCC(C(=O)NCCCN3CCCC3)CC2)nc1C,0%,0.04

SMILES,% Inhibition,Z score
Cc1cccn2cc(COc3ccc(C(=O)NC[C@@H](CO)C4CCC4)cc3)nc12,-12%,2.32
Nc1c(Oc2cccc(F)c2)ncnc1-c1ccc(F)cc1F,-10%,1.2
CCN1CCN(C(=O)c2ccc(Br)cn2)C(C)(C)C1=O,29%,-3.31
Cc1cc(=O)cc(O)n1Cc1nc(N)n[nH]1,-1%,0.15
Cc1noc(-c2nn(C)c3c2CN(C(=O)CC(C)(C)C)CC3)n1,6%,-0.66
CCN1CCN(C[C@]2(O)CCCN(Cc3cc(OC)ccc3F)C2=O)CC1,-7%,1.07
Cc1nc(Cc2ccc(N(C)C)cc2)n(CCO)n1,3%,-0.53
O=C(NCC(=O)N1CCC[C@@H]1Cc1ccc(F)cc1)c1ccccc1,-6%,1.11
Cn1ccc(NC(=O)Cn2cc(C(F)(F)F)ccc2=O)n1,8%,-1.57
Cn1cc(CN2CCCC[C@H]2c2nccn2C)c(-c2ccc3c(c2)OCCO3)n1,-6%,0.9
O=C(NC1Cc2cccc(O)c2C1)C1CC2CCC1O2 (stereo unspecified),-8%,1.6
Cc1cc(NC(=O)CN2CCC[C@H](C(=O)c3cccc(OC(C)C)c3)C2)no1,-2%,0.41
CCOC(=O)[C@H](C)N(C)S(=O)(=O)c1cnn(C)c1,-6%,1.21
Cc1ncnc(NCCCN(C)C2CCCC2)c1C,-10%,1.04
CCS(=O)(=O)c1cc(F)ccc1NC(=O)N[C@H](CO)CCOC,-8%,1.46
CCN1CCC[C@@H]1CNC(=O)c1n[nH]c2c1CCCC2,-9%,1.32
CCC[C@@]1(C2CCN(C(=O)c3csc4c3CCCC4)CC2)NC(=O)N(CCc2ccccn2)C1=O,-10%,1.29
C[C@H](NC(=O)c1noc2c1COCC2)c1csc(C(F)(F)F)c1,-9%,1.2
CC(C)N1CCC(=O)N(Cc2ccc(CN3C(=O)CCN(C(C)C)C3=O)cc2)C1=O,-10%,1.52
O=c1ccc(C(F)(F)F)nn1Cc1ccc(-n2cccn2)cc1,-9%,1.13
CC(C)c1nc(C#N)c(N2CCN(c3ccccc3)CC2)o1,4%,-0.52
